PMC4336329 (PLoS ONE, 2015)
The whole screen tested about 310,000 compounds, of which about 2,200 (0.71%) showed an effect of 50% or more. The effect is printed as a negative number. The list shows a part of the results.

target: human ether-à-go-go-related gene (hERG) potassium channel (human, UniProt Q12809); test: primary screen, population patch clamp on CHO cells stably expressing hERG
Sequence (Q12809 whole entry, looked up): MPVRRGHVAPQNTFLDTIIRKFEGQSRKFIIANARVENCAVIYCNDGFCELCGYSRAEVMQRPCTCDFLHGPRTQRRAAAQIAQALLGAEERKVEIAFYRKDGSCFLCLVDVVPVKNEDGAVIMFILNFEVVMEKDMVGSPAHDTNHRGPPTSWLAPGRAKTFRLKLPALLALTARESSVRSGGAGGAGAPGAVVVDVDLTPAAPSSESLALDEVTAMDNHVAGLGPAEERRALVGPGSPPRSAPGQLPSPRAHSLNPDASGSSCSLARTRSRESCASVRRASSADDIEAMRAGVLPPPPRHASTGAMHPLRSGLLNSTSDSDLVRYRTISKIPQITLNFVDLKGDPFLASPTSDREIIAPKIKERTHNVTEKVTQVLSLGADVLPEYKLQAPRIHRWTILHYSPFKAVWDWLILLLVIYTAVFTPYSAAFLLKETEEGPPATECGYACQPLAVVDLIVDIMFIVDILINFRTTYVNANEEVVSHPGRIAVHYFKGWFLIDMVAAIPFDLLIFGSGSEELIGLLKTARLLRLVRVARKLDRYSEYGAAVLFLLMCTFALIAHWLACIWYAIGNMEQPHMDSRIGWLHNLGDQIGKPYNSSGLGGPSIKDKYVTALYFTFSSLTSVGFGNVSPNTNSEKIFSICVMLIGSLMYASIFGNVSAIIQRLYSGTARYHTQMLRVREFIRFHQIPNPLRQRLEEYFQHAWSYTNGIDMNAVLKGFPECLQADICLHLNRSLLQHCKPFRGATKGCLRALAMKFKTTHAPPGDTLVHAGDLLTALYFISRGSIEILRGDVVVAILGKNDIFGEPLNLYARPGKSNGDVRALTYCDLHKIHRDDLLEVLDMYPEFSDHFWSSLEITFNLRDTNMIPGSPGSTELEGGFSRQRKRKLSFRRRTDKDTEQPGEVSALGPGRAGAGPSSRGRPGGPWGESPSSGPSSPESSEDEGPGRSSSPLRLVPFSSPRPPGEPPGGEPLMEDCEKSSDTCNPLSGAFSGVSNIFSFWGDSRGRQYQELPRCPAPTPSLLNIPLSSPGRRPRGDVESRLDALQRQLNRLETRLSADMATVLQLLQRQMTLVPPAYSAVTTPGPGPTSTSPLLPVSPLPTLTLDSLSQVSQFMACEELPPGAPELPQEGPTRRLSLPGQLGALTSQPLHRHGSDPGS

| Compound | hERG current change (%, negative = inhibition) at 1uM |
| --- | --- |
| O=C(COC(=O)/C=C/c1ccccc1)NC1CC1 | -7.28% |
| Cc1cccc(-c2noc(-c3ccc(F)cc3)n2)c1 | 5.22% |
| COc1ccc(C(=O)Nc2ccc(N3CCN(C(C)=O)CC3)cc2)cc1[N+](=O)[O-] | 13.4% |
| Cc1ccc(SCC(=O)OCC(=O)NCCC2=CCCCC2)cc1 | 9.01% |
| COc1cc(/C=C2\C(=N)N3N=C(N4CCOCC4)SC3=NC2=O)ccc1OC(=O)c1ccccc1 | 16.8% |
| Cc1ccc(-n2c(SCC(=O)N3CCCCC3)nc(O)cc2=O)cc1 | 9.05% |
| CC(C)(C)OC(=O)NCCCCCc1nnc(SCC(=O)Nc2cccc(Cl)c2)o1 | -1.82% |
| COc1cc(/C=C/C(=O)OCC(=O)c2c(N)n(C)c(=O)n(C)c2=O)ccc1OC(F)F | -2.51% |
| O=C(Cc1nnc(NC(=O)Nc2ccc(Cl)cc2)s1)NCc1ccccc1 | 6.41% |
| CCCC(=O)N=C1SC2CS(=O)(=O)CC2N1c1ccc(C(C)=O)cc1 (stereo not shown) | -6.95% |
| CC(C)C(=O)Nc1cccc(C(=O)Nc2ccc(S(=O)(=O)Nc3nccs3)cc2)c1 | 10.4% |
| O=C(Nc1ccncc1)c1cc2ccccc2o1 | -4.74% |
| Cc1cc(C)nc(Sc2ccc([N+](=O)[O-])cc2[N+](=O)[O-])n1 | 18% |
| O=C(Nc1ccc(N2CCN(C(=O)c3ccco3)CC2)c(Cl)c1)c1c(F)c(F)c(F)c(F)c1F | 0.802% |
| C/C(CC(c1ccccc1)c1c(O)c2ccccc2oc1=O)=N\Nc1ccc([N+](=O)[O-])cc1[N+](=O)[O-] (stereo not shown) | 10.7% |
| O=C(CN1CCN(Cc2ccc(Cl)cc2)C1=O)NCCCN1CCOCC1 | 4.56% |
| COc1ccc(CN2[C@@H](CC(=O)O)c3cc(C(F)(F)F)ccc3S2(=O)=O)cc1 | 14.2% |
| O=C(COc1ccc(Br)cc1)Nc1nnc(-c2cccnc2)s1 | 9.39% |
| O=C(/C=C/c1ccccc1)c1c(O)n(CCc2ccccc2)c(=O)[nH]c1=O | 4.37% |
| CCOC(=O)NC1(NC(C)C)Oc2ccccc2O1 | 8.78% |
| COCCNC(=O)NC(=O)COC(=O)C1(c2ccc(Cl)cc2)CC1 | 6.06% |
| CCOc1cc(C(C(=O)NCC2CCCO2)N(C(=O)Cn2nnc3ccccc32)c2ccccc2OC)ccc1O (stereo not shown) | 7.67% |

| Compound | hERG current change (%, negative = inhibition) at 1uM |
| --- | --- |
| Cc1cccn2c(CN[C@@H]3CCCC[C@H]3c3ccccc3)c(C(=O)N3CCOCC3)nc12 | 4.31% |
| CCOC(=O)C1CCCN(Cc2c(C(=O)N3CCOCC3)nc3ccccn23)C1 (stereo not shown) | 6.59% |
| Cc1cc(C)n2nc(CNS(=O)(=O)c3ccc([N+](=O)[O-])cc3)nc2n1 | 10.5% |
| O=C(COC(=O)c1ccc2[nH]c3c(c2c1)CCCC3)Nc1ccc(Cl)cc1Cl | 3.65% |
| O=C(NCc1ccc2c(c1)OCO2)c1ccc(=O)[nH]c1 | 10.1% |
| CC1CN=C(NCCc2ccccc2)S1 (stereo not shown) | 13% |
| CC(C)CN1C(=O)/C(=C/c2cccs2)NC1=S | 19.6% |
| CCC(=O)O[C@@H]1[C@@H](OC(C)=O)[C@@]2(O)C(C[C@H](O)C2(C)C)[C@](C)(O)[C@H]2CC[C@@H]3[C@@H](O)[C@]12C[C@@]3(C)O (stereo partly shown) | 13.5% |
| O=C(NC(=S)Nc1ccccc1N1CCOCC1)c1ccco1 | 5.79% |
| COc1cccc(OC)c1OCCOc1ccccc1OC(C)C | 0.584% |
| CCOc1ccccc1CN1CCN(Cc2ccc(C)o2)C(CCO)C1 (stereo not shown) | 7.58% |
| NC(=O)CSc1nnc(-c2ccncc2)o1 | 12.4% |
| CN1CCN(c2ccc(NC(=O)c3ccc([N+](=O)[O-])o3)cc2Cl)CC1 | -13.7% |
| COc1ccc(NC(=O)CSc2nc3ccccc3c(=O)n2CCCO)cn1 | -26.1% |
| CCn1cc(C(=O)O)c(=O)c2cc(F)c(N3CCNCC3)cc21 | 11.5% |
| Cc1nc2c(cnn2-c2ccccc2Cl)c(=O)n1-c1ccc(N2CCC(C)CC2)cc1 | 11.2% |
| Cc1ccc(C)c(Cn2c(C(C)O)nc3ccccc32)c1 (stereo not shown) | 11.2% |
| O=C(Cc1ccc([N+](=O)[O-])cc1)N1N=C2CCCCC2C1(O)C(F)(F)F (stereo not shown) | 5.78% |
| CCCCCCC(=O)c1c(C)[nH]c(C(=O)OCC)c1C | 11.8% |
| C=CCOc1nc2c(c(=O)n(C)c(=O)n2C)n1Cc1ccccc1 | 5.46% |
| COCCNC(=O)CSc1ncnc2sccc12 | 23.4% |
| CC(=O)Oc1ccccc1-c1nc(C)nc(N(C)C(C)=O)n1 | 12.4% |

| Compound | hERG current change (%, negative = inhibition) at 1uM |
| --- | --- |
| Cc1ccc(NC(=O)Nc2ccc(F)cc2)nc1 | 4.71% |
| COc1ccc(CN(C)C(=O)c2ccc(OCC(=O)N3CCOCC3)c(OC)c2)cc1 | 5.54% |
| CCOc1ccccc1C(=O)NCC(=O)NCC1CCCCC1 | 13.4% |
| Cc1cccc(/C(N)=N/OC(=O)Cc2ccccc2)c1 | 25.1% |
| CCOc1cc(NC(=S)NCC(C)C)c(OCC)cc1NC(=O)c1ccco1 | 7.29% |
| COc1ccc(CN2C(=O)CCC2(C)C(=O)NC2CCCCCC2)cc1 (stereo not shown) | -5.45% |
| Cc1cc(C)c2[nH]c(C)c(CN3CCCCCC3)c(=O)c2c1 | -3.09% |
| CN(C)C1=NP(N(C)C)(N(C)C)=NC(c2ccccc2)=N1 | -6.9% |
| COc1cccc(C(=O)NCCS(=O)(=O)N2CCCCC2)c1 | 7.65% |
| CC(=O)c1c(C)n(CC2CCCO2)c2ccc(O)cc12 (stereo not shown) | 17.1% |
| COc1ccc(NC(=O)c2c(C)nn(Cc3ccccc3)c2Cl)cc1S(=O)(=O)N1CCOCC1 | 7.75% |
| CCOc1ccccc1NC(=O)C(OC(=O)c1cc(C)oc1C)c1ccccc1 (stereo not shown) | 7.68% |
| O=C(CCS(=O)(=O)c1cccc2nonc12)N1CCCc2ccccc21 | 8.35% |
| Cc1cc(OCC(=O)N[C@H](C(=O)O)c2ccccc2)c2c3c(c(=O)oc2c1)CCC3 | 14.8% |
| Cc1cccc(CNS(=O)(=O)c2ccc(-c3cnc(C4CC4)o3)cc2)c1 | 18.2% |
| CC(NC(=S)Nc1cccc(C(F)(F)F)c1)C(C)(C)C (stereo not shown) | 13.1% |
| CC1(C)Cc2c(sc3nc(-c4cc5ccccc5o4)n(N)c(=O)c23)CO1 | 9.71% |
| CCN1C(=O)C(CC(=O)Nc2ccccc2Cl)N(NC(=O)c2cccc(F)c2)C1=S (stereo not shown) | 14.2% |
| Cc1ccc(C)c(NC(=O)CN(C)C(=O)c2cc([N+](=O)[O-])ccc2N2CCOCC2)c1 | -4.01% |
| CC(C)OCC(O)CN1CCN(CC(O)COc2ccc3c(c2)OCO3)CC1 (stereo not shown) | -19.4% |
| COc1ccc(NC(=O)c2ccccc2NS(C)(=O)=O)cc1OC | 15.9% |
| Cc1ccc(OCC(O)CN2CCN(CCO)CC2)c(C)c1.Cl (stereo not shown) | 10.6% |

| Compound | hERG current change (%, negative = inhibition) at 1uM |
| --- | --- |
| Oc1ccccc1/C=N/Nc1nccnc1Cl | 3.15% |
| COc1cc(/C=N/NC(=O)CN2CCOCC2)ccc1OCc1ccccc1 | 6.1% |
| CC(=O)N1C(C)(C)CC(=NOC(=O)c2ccccc2)CC1(C)C | 10.9% |
| O=S(=O)(NCc1ccc2c(c1)OCO2)c1cccc2nsnc12 | -5.56% |
| COCCCNC(=O)COc1ccc(S(=O)(=O)NCc2ccccc2)cc1Cl | 4.32% |
| Cc1onc(-c2ccccc2)c1NC(=O)Nc1ccc(OC(F)F)cc1 | 7.53% |
| O=C(NNC(=O)C1CCCC1)c1ccccc1F | 15.4% |
| Cn1c(O)c(C2=c3ccccc3=NC2=O)[nH]c1=S | 11.8% |
| CSc1nc(NCCCO)c2c3c(sc2n1)CN(C)CC3 | -10.6% |
| CCN(CC)c1ccc(S(=O)(=O)N2CCOCC2)cc1NC(=O)CN1CCc2ccccc2C1 | 3.72% |
| CN(C)CCCNC(=O)CCc1nc2ccccc2c(=O)[nH]1 | -4.91% |
| Cc1cc(NS(=O)(=O)c2ccc(NC(=O)CSc3nnc(-c4ccco4)n3Cc3ccco3)cc2)nc(C)n1 | 14.1% |
| Cc1n[nH]c(C)c1CCC(=O)N/N=C/c1c(C)[nH]c2ccccc12 | 14.2% |
| Cc1nc2ccc(NC(=O)c3ccc(Cl)s3)cc2s1 | 8.8% |
| Cc1cc(/C=C2\C(=O)NC(=O)N(c3ccc(F)cc3)C2=O)c(C)n1-c1cccc(C(=O)O)c1 | 11.1% |
| Cc1nc(NC(=O)COC(=O)C(NC(=O)c2ccco2)C(C)C)c(Cl)cc1Cl (stereo not shown) | 3.83% |
| CCN(C(=O)CSc1ccc2c(c1)OCCO2)C1CCS(=O)(=O)C1 (stereo not shown) | 9.99% |
| O=c1[nH]nc(SCc2ccccc2Cl)n1-c1ccc2c(c1)OCCO2 | 9.61% |
| CCOc1ccccc1NC(=O)C(=O)CC(=O)c1cccc(OC)c1 | 13.4% |
| CS(=O)(=O)c1ccccc1C(=O)NC1CCCc2ccccc21 (stereo not shown) | 19% |
| O=C(NCc1ccco1)c1ccc(F)c(S(=O)(=O)N2CCCCC2)c1 | 6.03% |
| CCOC(=O)c1nn(-c2ccccc2)c(=O)cc1OCC(=O)Nc1cc(C)ccc1OC | 2.21% |
